# Test results reported in the supplement of paper PMC12217912.
# The other results are listed elsewhere or left out. The full chains were built here from the parent and the listed change. Inactive controls read about 0.05.
# B1: TEV protease; numbered along this chain (parent)
# chain: MGESLFKGPRDYNPISSSICHLTNESDGHTTSLYGIGFGPFIITNKHLFRRNNGTLVVQSLHGVFKVKDTTTLQQHLVDGRDMIIIRMPKDFPPFPQKLKFREPQREERICLVTTNFQTKSMSSMVSDTSCTFPSGDGIFWKHWIQTKDGQCGSPLVSTRDGFIVGIHSASNFTNTNNYFTSVPKNFMELLTNQEAQQWVSGWRLNADSVLWGGHKVFMVKPEEPFQPVKEATQL
# Variants of: B1
# Test: raw area under fraction-flipped curve 0-4 h after induction (AUC4h, not background-subtracted), DNA-recorder readout of cleavage of the substrate (dimensionless); higher = more cleavage of the substrate by the protease variant
# Conditions: temperature: 34 °C; time window: 0-4 h after rhamnose induction
# Experimental: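 In vivo DNA recorder in E. coli TOP10(DE3) ΔrhaA at 34 °C. Each TEVp single-site mutant (parent TEVp 0) is paired with a single-site variant of the 7-mer TEVs (canonical ENLYFQ|S). The substrate sits between flexible linkers in a Bxb1-sfGFP-TEVs-SsrA fusion, so cleavage stabilises Bxb1 and speeds flipping of a recombination array, read by NGS. The value is the raw area under the fraction-flipped curve over 0-4 h after rhamnose induction (AUC4h), with ≥20 reads per time point. It is not background-subtracted; inactive controls average about 0.047.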
# 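Also: Bxb1 expression induced with 0.2% (w/v) L-rhamnose at OD600 near 0.5, cultures sampled hourly, flipped fraction per protease–substrate barcode pair counted by paired-end Illumina sequencing.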
Variant,area with substrate ENLAFQS,area with substrate ENLCFQS,area with substrate ENLDFQS,area with substrate ENLEFQS,area with substrate ENLFFQS,area with substrate ENLGFQS,area with substrate ENLHFQS,area with substrate ENLIFQS,area with substrate ENLNFQS,area with substrate ENLPFQS,area with substrate ENLSFQS,area with substrate ENLWFQS,area with substrate ENLLFQS,area with substrate ENLRFQS,area with substrate ENLTFQS,area with substrate ENLVFQS,area with substrate ENLKFQS,area with substrate ENLMFQS,area with substrate ENLQFQS
MGESLFKGPRDYNPISSSICHLTNESDGHTTSLYGIGFGPFIITNKHLFRRNNGTLVVQSLHGVFKVKDTTTLQQHLVDGRDMIIIRMPKDFPPFPQKLKFREPQREERICLVTTNFQTKSMSSMVSDTSCTFPSGDGIFWKHWIQTKFGQCGSPLVSTRDGFIVGIHSASNFTNTNNYFTSVPKNFMELLTNQEAQQWVSGWRLNADSVLWGGHKVFMVKPEEPFQPVKEATQL [D149F],0.0661,0.0443,0.0625,0.057,0.0991,0.0554,0.062,0.084,0.111,0.0677,0.0676,0.0628,–,–,–,–,–,–,–
MGESLFKGPRDYNPISSSICHLTNESDGHTTSLYGIGFGPFIITNKHLFRRNNGTLVVQSLHGVFKVKDTTTLQQHLVDGRDMIIIRMPKDFPPFPQKLKFREPQREERICLVTTNFQTKSMSSMVSDTSCTFPSGDGIFWKHWIQTKDGKCGSPLVSTRDGFIVGIHSASNFTNTNNYFTSVPKNFMELLTNQEAQQWVSGWRLNADSVLWGGHKVFMVKPEEPFQPVKEATQL [Q151K],0.0659,0.0617,0.071,0.068,0.0477,0.0536,–,–,0.0563,0.0546,0.0558,0.0275,0.0517,0.0637,0.064,0.0729,–,–,–
MGESLFKGPRDYNPISSSICHLTNESDGHTTSLYGIGFGPFIITNKHLFRRNNGTLVVQSLHGVFKVKDTTTLQQHLVDGRDMIIIRMPKDFPPFPQKLKFREPQREERICLVTTNFQTKSMSSMVSDTSCTFPSGDGIFWKHWIQTKDGQCASPLVSTRDGFIVGIHSASNFTNTNNYFTSVPKNFMELLTNQEAQQWVSGWRLNADSVLWGGHKVFMVKPEEPFQPVKEATQL [G153A],0.0512,0.0639,0.112,0.0551,0.0704,–,0.0539,–,0.0834,–,0.0456,–,–,–,–,–,0.0639,–,–
MGESLFKGPRDYNPISSSICHLTNESDGHTTSLYGIGFGPFIITNKHLFRRNNGTLVVQSLHGVFKVKDTTTLQQHLVDGRDMIIIRMPKDFPPFPQKLKFREPQREERICLVTTNFQTKSMSSMVSDTSCTFPSGDGIFWKHWIQTKDGQCHSPLVSTRDGFIVGIHSASNFTNTNNYFTSVPKNFMELLTNQEAQQWVSGWRLNADSVLWGGHKVFMVKPEEPFQPVKEATQL [G153H],0.0513,0.0448,0.0475,–,0.0378,0.0436,–,0.045,0.0385,0.0429,0.0477,–,–,–,–,–,0.0595,0.0045,0.041
MGESLFKGPRDYNPISSSICHLTNESDGHTTSLYGIGFGPFIITNKHLFRRNNGTLVVQSLHGVFKVKDTTTLQQHLVDGRDMIIIRMPKDFPPFPQKLKFREPQREERICLVTTNFQTKSMSSMVSDTSCTFPSGDGIFWKHWIQTKDGQCGSTLVSTRDGFIVGIHSASNFTNTNNYFTSVPKNFMELLTNQEAQQWVSGWRLNADSVLWGGHKVFMVKPEEPFQPVKEATQL [P155T],0.0401,0.0486,0.0554,0.0667,–,0.0128,0.0601,–,0.0637,0.0592,0.049,–,–,0.0532,–,–,0.0525,–,0.0406
MGESLFKGPRDYNPISSSICHLTNESDGHTTSLYGIGFGPFIITNKHLFRRNNGTLVVQSLHGVFKVKDTTTLQQHLVDGRDMIIIRMPKDFPPFPQKLKFREPQREERICLVTTNFQTKSMSSMVSDTSCTFPSGDGIFWKHWIQTKDGQCGSPFVSTRDGFIVGIHSASNFTNTNNYFTSVPKNFMELLTNQEAQQWVSGWRLNADSVLWGGHKVFMVKPEEPFQPVKEATQL [L156F],0.059,0.0576,–,0.0602,0.064,–,0.0487,–,0.0515,0.0471,0.0586,–,0.0584,0.0693,–,0.0472,0.0629,–,0.0523
MGESLFKGPRDYNPISSSICHLTNESDGHTTSLYGIGFGPFIITNKHLFRRNNGTLVVQSLHGVFKVKDTTTLQQHLVDGRDMIIIRMPKDFPPFPQKLKFREPQREERICLVTTNFQTKSMSSMVSDTSCTFPSGDGIFWKHWIQTKDGQCGSPPVSTRDGFIVGIHSASNFTNTNNYFTSVPKNFMELLTNQEAQQWVSGWRLNADSVLWGGHKVFMVKPEEPFQPVKEATQL [L156P],0.048,–,0.0594,0.078,–,–,0.0516,–,0.0507,–,–,0.0532,–,0.0625,–,–,0.0525,0.048,–
MGESLFKGPRDYNPISSSICHLTNESDGHTTSLYGIGFGPFIITNKHLFRRNNGTLVVQSLHGVFKVKDTTTLQQHLVDGRDMIIIRMPKDFPPFPQKLKFREPQREERICLVTTNFQTKSMSSMVSDTSCTFPSGDGIFWKHWIQTKDGQCGSPLHSTRDGFIVGIHSASNFTNTNNYFTSVPKNFMELLTNQEAQQWVSGWRLNADSVLWGGHKVFMVKPEEPFQPVKEATQL [V157H],0.0479,0.0558,0.054,0.0425,0.06,0.0589,0.0513,–,0.0584,0.0504,0.0528,0.0526,0.061,0.0652,–,–,0.0431,–,–
MGESLFKGPRDYNPISSSICHLTNESDGHTTSLYGIGFGPFIITNKHLFRRNNGTLVVQSLHGVFKVKDTTTLQQHLVDGRDMIIIRMPKDFPPFPQKLKFREPQREERICLVTTNFQTKSMSSMVSDTSCTFPSGDGIFWKHWIQTKDGQCGSPLVKTRDGFIVGIHSASNFTNTNNYFTSVPKNFMELLTNQEAQQWVSGWRLNADSVLWGGHKVFMVKPEEPFQPVKEATQL [S158K],0.055,–,0.0555,–,0.0539,–,0.0401,0.0469,0.0416,–,0.0385,0.046,–,0.0558,–,0.0694,0.0598,–,0.0486
